This is one part of the list. Shown are side measurements of this screen, not its main read-out; they come without a call. Most of these compounds were active or inconclusive in the main read-out, so they are no random draw.
Assay: oleate-induced lipid droplet accumulation in AML12 cells – imaging, high-throughput imaging, BODIPY stain, primary screen (AID 1656);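 also: cells counted across two imaged fields per well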
Settings: AML12 mouse hepatocytes, oleate lipid droplets, measured here: cell count, cytotoxicity flag, at 6.5 µM
How it was run: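 Material: mouse AML12 hepatocyte cell line, fixed after treatment; Timing: compound with oleate, overnight; Technique: high-content imaging of BODIPY-stained droplets and DAPI nuclei; Probe or stimulus: oleate, 100 µM final; Dosing: compound at 6.5 µM only.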

Row | SMILES | cell count [cells]
1 | Nc1cc(Cl)c2nonc2c1[N+](=O)[O-] | 562
2 | CCC1(OC(=O)CN)C(=O)OCc2c1cc1n(c2=O)Cc2cc3ccccc3nc2-1 (centres undefined) | 251
3 | CC(C)[C@]12O[C@H]1[C@@H]1O[C@]13[C@]1(O[C@H]1C[C@H]1C4=C(CC[C@@]13C)C(=O)OC4)[C@@H]2O | 341
4 | O=c1[nH]c(=O)n(-c2ccccc2)c(O)c1/C=C1/C(c2ccccc2)=Nc2ccccc21 | 272
5 | COc1cccc(OC)c1C1=NCC(=O)Nc2c1oc1ccc(Br)cc21 | 256
6 | COC(=O)C1CN(C#N)N(c2ccc(Cl)cc2)C12c1ccccc1-c1ccccc12 (centres undefined) | 586
7 | NC(=S)c1cn(C2OC(CO)C(O)C2O)c2ncnc(N)c12 (centres undefined) | 254
8 | CC(=O)OC(C)(C)/C=C/C(=O)C(C)(O)C1[C@H](O)C[C@@]2(C)C3CC=C4C(CC[C@@H](O)C4(C)C)[C@]3(CO)C(=O)C[C@]12C (some centres undefined) | 157
9 | C#CCOc1cc(C2C3=C(COC3=O)Nc3cc4c(cc32)OCO4)ccc1OC (centres undefined) | 139
10 | Cc1cccc(-n2c(/C=C/c3ccc([N+](=O)[O-])o3)nc3ccccc3c2=O)c1 | 138
11 | Cc1nc2c(=O)n(C)c(=O)nc-2n(C)n1 | 234
12 | C=C1C(=O)O[C@@H]2C[C@@H](C)[C@@H]3C=CC(=O)[C@@]3(C)[C@@H](OC(=O)CC(=O)O[C@H]3[C@@H]4C(=C)C(=O)O[C@@H]4C[C@@H](C)[C@@H]4C=CC(=O)[C@]43C)[C@H]12 | 48
13 | CC1CCC/C=C/C2CC(O)CC2C(O)/C=C/C(=O)O1 (centres undefined) | 361
14 | CC1(C)CN=C(Nc2ccc(F)c(Cl)c2)S1 | 631
15 | NC(=O)c1cn(C2OC(CO)C(O)C2O)c2ncnc(N)c12 (centres undefined) | 202
16 | CC1=CC(=C2C(=O)NC(=S)NC2=O)C=C(C(F)(F)F)N1Cc1ccccc1 | 155
17 | CCc1ccc(-n2c(O)c(C(C)=O)c(=O)[nH]c2=O)cc1 (tested in a mixture with another compound) | 719
18 | C=C(C=O)CC1CC(O)[C@]2(C)OC3CC4OC5C[C@]6(C)O[C@]7(C)CCC8OC9C[C@]%10(C)OC%11C(C)=CC(=O)OC%11CC%10OC9C[C@@H](C)C8OC7CC6O[C@]5(C)CC5OC5C4OC3CC2O1 (some centres undefined) | 139
19 | CC1(C)C[C@H]2C=C(C=O)[C@]3(C=O)C[C@]3(C)[C@H]2C1 | 221
20 | CN1CCN(c2ccc([N+](=O)[O-])c(NCc3ccco3)c2)CC1 | 109
21 | CN1C2CCC1/C(=C/c1ccccn1)C(=O)/C2=C\c1ccccn1 | 271
22 | CC(=O)OC(C)(C)/C=C/C(=O)[C@](C)(O)[C@H]1[C@H](O)C[C@@]2(C)[C@@H]3CC=C4[C@H](C[C@H](O)C(=O)C4(C)C)[C@]3(C)C(=O)C[C@]12C | 573
23 | C[C@H]1CCC/C=C/C2C[C@H](O)CC2[C@H](O)/C=C/C(=O)O1 (some centres undefined) | 248
24 | CC(C)OCCCNC(=O)c1c(N)n(CC2CCCO2)c2nc3ccccc3nc12 (centres undefined) | 650

— PubChem BioAssay AID1656 (Sanford-Burnham Center for Chemical Genomics, 2009)
